The results in this text go back to article PMC12136788.

The labels stand for the following.
T1: UNK ZnF1-6 (called full-length) (human, UniProt Q9C0B0 30-357)
T1 sequence: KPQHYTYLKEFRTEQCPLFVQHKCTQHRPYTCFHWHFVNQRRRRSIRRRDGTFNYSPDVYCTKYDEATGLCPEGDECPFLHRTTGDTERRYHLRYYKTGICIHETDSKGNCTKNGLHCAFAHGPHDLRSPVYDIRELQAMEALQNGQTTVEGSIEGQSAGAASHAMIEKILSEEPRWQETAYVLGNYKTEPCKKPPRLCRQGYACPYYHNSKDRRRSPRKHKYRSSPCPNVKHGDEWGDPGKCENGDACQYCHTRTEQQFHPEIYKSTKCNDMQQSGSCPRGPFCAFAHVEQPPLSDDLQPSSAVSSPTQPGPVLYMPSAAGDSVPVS

B1: ENSG00000109099:stop:overlap|stop_codon|ENSG00000109099|stop_codon|NA|stop_codon (ssRNA)
RNA: GGGAGUUCUACAGUCCGACGAUCCAUUAGAUAAGUCAGACAGAGCCCAAGAGACAACUUCAGUAUUUCUUAAAGACAAGAGUUAGCACUUUGGAGAUGCAAGCCGUGGAAGAGUGGGGCAAGAUAAUUAAGGAUCCUGGACCUCAACAGAGGAUUGAGCAUCA
B2: chr2:165759335:165759570:-|CDS|ENSG00000115339|control|control|control (ssRNA)
RNA: GGGAGUUCUACAGUCCGACGAUCUCUGUUGGCCAGAAUAGCUGAGAACUACACGGCUGUCGUAAGUCCAGAUAUUGCAUCCAUAGAUCUGAACACGUUUGAAUUCAACAAACCUUCUCCUUAUGGAAGUAACCAUAACCGUGGCAACAGAGGAUUGAGCAUCA
B3: chr17:80295660:80295761:+|CDS|ENSG00000173821|msi1|FALSE|bound_elsewhere (ssRNA)
RNA: GGGAGUUCUACAGUCCGACGAUCGAGUAAACUGAAAACAGGCCUGAUUGUCCUUUUUGUAGUGGAAAAAAUUGAGCUUUUAUUAGAAGGCAGCCUGGACUGGUUGUGUCACCUCCUAACCUCAGAUGCCAGCUCACCAGAUGACAACAGAGGAUUGAGCAUCA
B4: ENSG00000150457:stop:overlap|stop_codon|ENSG00000150457|stop_codon|NA|stop_codon (ssRNA)
RNA: GGGAGUUCUACAGUCCGACGAUCCAGAUUUAGAAAGCUCUGAUCUGGUGGAUCAGACUGAAGGCUGCCAGCCUGUGUACGUGUAGAUGGGGGCCAGGCACCCCCACCACUCGCUGCCUCCCAGGUCAGGGUCCCGGAGCCGGUCAACAGAGGAUUGAGCAUCA
B5: chr12:29502561:29502662:-|3pUTR|ENSG00000133687|msi1|total|mutant (ssRNA)
RNA: GGGAGUUCUACAGUCCGACGAUCUCUUAACAAUGAUGUAUGGCACAAUUGGUUGGUUGAGGCUAUCAUUCCAUGAUUACAAACCGGUGGUUAUGUGGGGUGGUUUUGCACUUGUGGCAAUUGGACUGCAAUUUGGCCUUAAAACAACAGAGGAUUGAGCAUCA
B6: chr17:3714672:3714773:-|3pUTR|ENSG00000083457|msi1_unk|total|mutant (ssRNA)
RNA: GGGAGUUCUACAGUCCGACGAUCUUUGCAUUACUUUUUCCUUCAGGAUGAUCCCGAGCAGCAUGGAGCUGUUGGCCGAAUAUCCGUUUUUAACCAUACAUUGUCCCAAAAGUGUCUGUGCAUUGUGCAAAAAGUAAACUCCGGCAACAGAGGAUUGAGCAUCA
B7: chr8:38142699:38144272:-|three_prime_utr|ENSG00000147465|control|control|control (ssRNA)
RNA: GGGAGUUCUACAGUCCGACGAUCGGAAGCCUGCAAGUCUAAGAUCUCCAUCUGGUGACAGUGGGAUGGGUGGGGUUCGUGUUUAGAGUAUGACACUAGGAUUCAGAUUGGUGAAAGUUUUUAGUACCAAGAAAACAGGGAUGACAACAGAGGAUUGAGCAUCA
B8: chr12:62383855:62383964:+|CDS|ENSG00000135655|unk|total|mutant (ssRNA)
RNA: GGGAGUUCUACAGUCCGACGAUCGGCCGGACGUUUUGCACCUCAGUUCUCUGGAUAUCAGCAGCAAGACUGUCAAGAACUGUCCGCUUUCCUAUCCGAUGGAUUACAUGAGGAUUUGAACCGAAUCCGGAAAAAACCAUAUAUCAACAGAGGAUUGAGCAUCA
B9: chr11:112063736:112063838:+|3pUTR|ENSG00000150768|unk|total|mutant (ssRNA)
RNA: GGGAGUUCUACAGUCCGACGAUCGAGAGAAAAAAUUAACCCGGUUGCUACUUUAUUUGCCUAAAUACUUUUUUCUAUUUUGUCCGAUUUUGCCUUUCUUUUGGAAGGAAGGAGGCGAUAUUCUGGAUUAUAAAAAUGAAUUGGCAACAGAGGAUUGAGCAUCA
B10: ENSG00000070961:be:win_5801|3pUTR|ENSG00000070961|bound_else_gene|NA|bound_elsewhere_windowed (ssRNA)
RNA: GGGAGUUCUACAGUCCGACGAUCGAAAAGGGAAAUGUUUUCAGUUUUCUUUUUUAUUUUGGUUAUGCUUAAAUAUGAAUGUAAUUACCAAAAGAUUUAGAAGUGCAUGUGCUUUGGAGGAUUUGUAUUGAGCUUUUACAGUAUCAACAGAGGAUUGAGCAUCA
B11: chr15:74179522:74179623:-|3pUTR|ENSG00000137868|msi1|total|mutant (ssRNA)
RNA: GGGAGUUCUACAGUCCGACGAUCUCAUGACUCAGACCAGGUCCCACACUGAGCUGCCCACACUCGAGAGCCAGAUAUUUUUGCCGUUUUUAUGCCUUUGGCUAUUAUGAAAGAGGUCCGUGUGUUCCCUGCAAUAAACUUGUUCAACAGAGGAUUGAGCAUCA
B12: chr12:76025442:76025543:-|3pUTR|ENSG00000139289|msi1|total|mutant (ssRNA)
RNA: GGGAGUUCUACAGUCCGACGAUCAUACACCAUCACAUUCAUGAAUUUUUCCGCAUGGUCAGAACUUGUGUAAAUAUGUCUCUCCGAUGAUUUUGGGGAGAUGUGAUUUAUUUUUCAUAUUUUCAAAAUGCAUUUCAUUUCAAACAACAGAGGAUUGAGCAUCA
B13: ENSG00000198589:be:win_101|CDS|ENSG00000198589|bound_else_gene|NA|bound_elsewhere_windowed (ssRNA)
RNA: GGGAGUUCUACAGUCCGACGAUCCUCUGAAACCAGGGCUCCCCAUCAGGGGCAUCAGAAUGAAAUUUGCCGUGUUGACCGGUUUGGUUGAAGUUGGAGAAGUAUCCAAUAGGGAUAUUGUAGAAACUGUCUUUAACCUGUUGGCAACAGAGGAUUGAGCAUCA
B14: chr17:29498396:29498497:+|CDS|ENSG00000160551|msi1|FALSE|bound_elsewhere (ssRNA)
RNA: GGGAGUUCUACAGUCCGACGAUCCAGCAGCCAAAGCAGUAGUGUUAACAGUCUUCCAGAUGUCUCAGAUGACAAGAGUGAGCUAGACAUGAUGGAGGGAGACCACACAGUGAUGUCUAACAGUUCUGUUAUCCAUUUAAAACCCAACAGAGGAUUGAGCAUCA
B15: chr17:49055506:49055607:+|3pUTR|ENSG00000159217|unk|total|mutant (ssRNA)
RNA: GGGAGUUCUACAGUCCGACGAUCCACUUCCCGGCUGUGGGGGCUGGGGAGCCACUUGUAACAUUUCUGUGCAGAUUUUAUGUCCGCCACUGCUAUGUAAAAGCACGUUCAAAAUGAAUUUCAGCAGAUUAUGUGUUACCAUAACAACAGAGGAUUGAGCAUCA
B16: ENSG00000136451:be:win_3901|3pUTR|ENSG00000136451|bound_else_gene|NA|bound_elsewhere_windowed (ssRNA)
RNA: GGGAGUUCUACAGUCCGACGAUCAUAAACAGGAGUGAGACUUCAUUGUAUGACUUCAGUUAAAAUACUAUUUUGUAUGCAUUCUUUAUUCACUUAAGAAGCUUGUCUGCAAUAAUAAAGCCACGUCAUGUCUUCUUUUGGGAGCAACAGAGGAUUGAGCAUCA
B17: chr3:185511523:185511697:-|CDS|ENSG00000163898|control|control|control (ssRNA)
RNA: GGGAGUUCUACAGUCCGACGAUCUAAUCAAGAUCUGGAUAAAGUGGCUGCAAUUUCCUUGAUGUUCUCUACAGGAUCUCUAAUAGGCCCAAGGUACAAGCUCAGGAUUCUCCGAAUGAAGUUAAGGUCCCUUGCCCAUCCGGACAACAGAGGAUUGAGCAUCA
B18: chr3:43366700:43366801:-|3pUTR|ENSG00000160746|unk|total|mutant (ssRNA)
RNA: GGGAGUUCUACAGUCCGACGAUCACGGUGGCAGGGGGGGUACCCGGGGCAGCAUCGUGGCUCCUGAACCCAGACCCAAUGCUCCGCCAAACGAAGUGGCUCCCAUGUGGCAAGCACCCUUCUCAGUUUCGCAGUGGCUUGGCUCAACAGAGGAUUGAGCAUCA
B19: chr1:43997547:43997739:-|CDS|ENSG00000196517|control|control|control (ssRNA)
RNA: GGGAGUUCUACAGUCCGACGAUCAAGCAGAGACUGGGGCCCUGCCCUCCUGGAGCACCGGACAGGGCGCUACGCCCCCACCAUAGCCCCCUCUCCUGAGGACGGCUUCGAGGUCCAGCCACUGCACCCGGACAAGGCGCAGAUCAACAGAGGAUUGAGCAUCA
B20: chr12:108522223:108522324:-|3pUTR|ENSG00000075856|msi1|total|mutant (ssRNA)
RNA: GGGAGUUCUACAGUCCGACGAUCUCAGUCGGGUUUUCUAUAUUUUUUUAACUUAACAUUUUUUAAUAUAACCGAUUAAAAAGCCGACAGAACAGUAAAAUAAACUCCUGUGUGCCUACCAUUCAGCUUCCAGCAUUCCUCAACCAACAGAGGAUUGAGCAUCA
B21: chr10:11763304:11763405:+|CDS|ENSG00000134463|unk|FALSE|unique (ssRNA)
RNA: GGGAGUUCUACAGUCCGACGAUCGGGCUGCUUAGCAAGGUGGUGCCAGAGGCGGAGCUGCAGGAGGAGACCAUGCGGAUCGCUAGGAAGAUCGCAUCGCUGAGCCGUCCGGUGGUGUCCCUGGGCAAAGCCACCUUCUACAAGCAACAGAGGAUUGAGCAUCA
B22: ENSG00000120265:stop:overlap|stop_codon|ENSG00000120265|stop_codon|NA|stop_codon (ssRNA)
RNA: GGGAGUUCUACAGUCCGACGAUCUAGCUGACUCUACAGGAGAAGAAAUUUUUAGCUGCCGUACUUUAGAGGGACUGUUUUACUAGAUGAGCACGUUACCCUUUGGCAUGAUUAUAUUUUCUAAUUUUAACUGCUGGGUGACAGCAACAGAGGAUUGAGCAUCA

This is one part of the list.

This test addresses T1, UNK ZnF1-6 (called full-length). Briefly: nsRBNS (natural sequence RNA bind-n-seq); RBNS binding buffer (assumed for nsRBNS): 25 mM Tris pH 7.5, 150 mM KCl, 3 mM MgCl2, 0.01% Triton X-100, 500 ug/ml BSA, 20 U/ml SUPERase-In, 4 C; UNK is unkempt and MSI1 is Musashi-1; names of the RNAs are library labels; protein concentration not given here; high values mean tight binding.
Regarding B1, the binding signal amounted to 0.407 enrichment R.
Consider B2, for which the binding signal was determined as 0.399 enrichment R.
For the molecule B3, the binding signal was 0.639 enrichment R.
The molecule B4 gave a binding signal of 0.715 enrichment R.
B5 registered a binding signal of 0.494 enrichment R.
With B6, the binding signal turned out to be 0.373 enrichment R.
As for B7, the figure is 1.51 enrichment R; as for B8, 0.544 enrichment R.
On to B9, for which the binding signal was determined as 0.572 enrichment R.
Consider B10, for which the binding signal is 0.67 enrichment R.
In turn, B11 gave a binding signal of 0.699 enrichment R.
Molecule B12 yielded a binding signal of 0.502 enrichment R.
Molecule B13 returned a binding signal of 0.698 enrichment R.
Consider B14, for which the binding signal is 0.632 enrichment R.
As for B15, the figure is 0.518 enrichment R.
As for B16, the figure is 0.419 enrichment R; as for B17, 0.287 enrichment R; as for B18, 1.1 enrichment R.
For B19, the binding signal stood at 0.841 enrichment R.
Turning to B20, the binding signal worked out at 0.955 enrichment R.
B21 gave a binding signal of 0.722 enrichment R.
The molecule B22 had a binding signal of 1.29 enrichment R.
